Measurements as given in PubChem BioAssay (NCATS).
“And” between values parts separate entries of the source, which are not always exact repeats. Identical values can stand only once. The list shows a part of the results. Further columns of the screen follow, without active or inactive calls. The note in brackets gives the kind of curve behind each potency; many fits are weak.

Test: qHTS drug screen for cell cycle checkpoint inhibitors in PARPi-resistant BRCA-mutant ovarian cancer cell lines. (AID 1963452)
Settings: PEO1/OlaR viability, CellTiter-Glo luminescence, 96 h
Procedure, shortened: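 PEO1, PEO4 and PEO1/OlaR ovarian cancer cells, 600 per well, exposed 96 h at 37C to a dilution series. Viability read by CellTiter-Glo luminescence, normalized to DMSO and empty wells; activity summarized as Z-AUC.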

[1] = measured here: PEO1 parental viability
Tags tell the direction and shape of the fitted curve.

Structure (SMILES)	AC50 [1]	AC50 (measured here: PEO4 viability)
CC(C)[C@@H](CS(=O)(=O)C(C)C)N1C(=O)[C@@](C)(CC(=O)O)C[C@H](c2cccc(Cl)c2)[C@H]1c1ccc(Cl)cc1	12.3 µM [falling, partial curve, poor fit]	15.5 µM [falling, single point]
Cc1cc(O[C@@H](CCC(F)(F)F)c2ccc(C(=O)NCCC(=O)O)cc2)cc(C)c1-c1ccc(C(C)(C)C)cc1	17.4 µM [falling, single point]	21.9 µM [falling, partial curve]
CC[C@@H](C)Nc1cc(C(=O)NC2CC3CCC(C2)N3c2ccc(C(=O)C3CC3)cn2)c(C)cc1C(N)=O (some centres undefined)	0.174 µM [falling, full curve]	1.95 µM [falling, partial curve]
O=C1NC(=O)/C(=C/c2ccc3nccc(-c4ccncc4)c3c2)S1	1.55 µM [falling, full curve]	0.871 µM [falling, full curve]
Cc1nnn(C)c1-c1cnc2c3ccc(C(C)(C)O)cc3n([C@H](c3ccccc3)C3CCOCC3)c2c1	0.347 µM [falling, partial curve]	3.47 µM [falling, partial curve]
COc1cc2c(Oc3ccc4[nH]c(C)cc4c3F)ccnc2cc1OCC1(N)CC1	6.16 µM [falling, partial curve]	6.16 µM [falling, partial curve]
COc1ccc(S(=O)(=O)Nc2cc(-c3c(O)ccc4ccccc34)c(O)c3ccccc23)cc1	1.95 µM [falling, full curve, poor fit]	3.47 µM [falling, full curve]
CN(C)C1CCN(C(=O)c2ccc(NC(=O)Nc3ccc(-c4nc(N5CCOCC5)nc(N5CCOCC5)n4)cc3)cc2)CC1	155 nM [falling, full curve] and 77.6 nM [falling, full curve]	219 nM [falling, full curve] and 49 nM [falling, full curve]
CSc1ccc(C(=O)/C=C/c2cc(C)c(OC(C)(C)C(=O)O)c(C)c2)cc1	39.8 µM [falling, partial curve]	31.6 µM [falling, single point]
COc1cccc2c1C(=O)c1c(O)c3c(c(O)c1C2=O)C[C@@](O)(/C(CO)=N/NC(=O)CCCCCN1C(=O)C=CC1=O)C[C@@H]3O[C@H]1C[C@H](N)[C@H](O)[C@H](C)O1	0.389 µM [falling, full curve]	0.776 µM [falling, full curve]
CN(C)CCNC(=O)COc1c2cccc1Cc1cccc(c1OCC(=O)NCCN(C)C)Cc1cccc(c1OCC(=O)NCCN(C)C)Cc1cccc(c1OCC(=O)NCCN(C)C)C2	0.356 µM [falling, full curve]	0.356 µM [falling, full curve]
FC(F)(F)c1ccc(CNc2ccc(Cc3c[nH]c4ncccc34)cn2)cc1	6.16 µM [falling, partial curve, poor fit]	4.9 µM [falling, full curve]
C[C@@H](N)C1CCC(C(=O)Nc2ccncc2)CC1 (some centres undefined)	11 µM [rising, partial curve, poor fit]	0.0275 µM [rising, full curve, poor fit]
CN[C@@H]1C[C@H]2O[C@@](C)([C@@H]1OC)n1c3ccccc3c3c4c(c5c6ccccc6n2c5c31)C(=O)N[C@H]4O	3.17 µM [falling, partial curve]	1.12 µM [falling, partial curve]
O=C1C[C@@H](c2ccc(O)cc2)Oc2cc(O)cc(O)c21	0.347 µM [rising, partial curve, poor fit]	1.74 µM [rising, partial curve, poor fit]
CNCCn1c(=O)c2cc(OC)c(OC)cc2c2cnc3cc4c(cc3c21)OCO4	0.0071 µM [falling, full curve]	0.0283 µM [falling, full curve]
COc1cc2c3c(n(CCCN4CCOCC4)c(=O)c2cc1OC)-c1cc2c(cc1C3=O)OCO2	0.0616 µM [falling, full curve]	3.09 µM [falling, partial curve]
O=c1cc(N2CCOCC2)oc2c(-c3ccc4c(c3)OCCO4)csc12	3.89 µM [falling, partial curve]	3.09 µM [falling, full curve]
Cc1cc(Nc2cc(N3CCN(C)CC3)nc(/C=C/c3ccccc3)n2)n[nH]1	6.16 µM [falling, partial curve]	6.92 µM [falling, partial curve, poor fit]
Cc1ccc(NS(=O)(=O)c2cccc(C#N)c2)c2[nH]cc(C#N)c12	1.38 µM [falling, full curve]	0.245 µM [falling, full curve]
O=C(Nc1ccnc(NC(=O)C2CC2)c1)c1c(Cl)cccc1Cl	13.8 µM [falling, partial curve]	17.4 µM [falling, partial curve]
CC(C)[C@](O)(c1ccc2cc(OC(F)F)c(OC(F)F)cc2c1)c1cn[nH]n1	15.5 µM [falling, partial curve, poor fit]	13.8 µM [falling, single point]
